From patent US20240239894A1, “THERAPEUTIC BINDING MOLECULES” (MedImmune Limited, priority 2020, published 2024)

How the values were obtained:
[1] = system: patient derived xenograft (PDX) models; assay: PDX models, single i.v. dose; format: in vivo, mouse; conditions: single i.v. injection, 7 mg/kg
Experimental: Tumor tissue fragments were implanted subcutaneously into female athymic nude mice between 6 to 8 weeks of age. When tumors reached the appropriate tumor volume range (typically 150-300 mm^3), animals were randomized into treatment and control groups and dosing was initiated. Tumor-bearing mice were administered a single dose of test articles via intravenous injection. Animals were observed daily and tumor dimensions and body weight were measured and recorded twice weekly. […] Tumor volumes were measured by digital caliper and the volumes of tumors were calculated using the following formula: tumor volume=[length (mm) x width (mm)^2×0.52, where the length and width are the longest and shortest diameters of the tumor, respectively.
Tumor volume at the beginning of treatment is referred as the initial tumor volume (ITV); tumor volume at the time showing maximal response to the ADC treatment is referred to as the end tumor volume (ETV). If ETV is less than ITV, the anti-tumor response is calculated as follows: [(ETV−ITV)/ITV]×100. Otherwise, the anti-tumor response is expressed as percent tumor volume change in the treatment arm relative to the vehicle control arm: 100-[1-((ETV-ITV)treatment/(ETV-ITV)vehicle)×100].

[2] = Serum stability (immunoprecipitation, rLCMS); format: in vitro ADME
Experimental: (§1) The stability of E02-GL-SG3932 in cynomolgus monkey, mouse, and rat serum was evaluated using immunoprecipitation followed by reduced reverse phase mass spectrometry (rLCMS). […] The stability of E02-GL-SG3932 in human serum was evaluated by immunocapture using human B7-H4 coated resin, followed by rLCMS. Measurements indicate that drug loss after incubation in human serum was modest, with 81% of SG3924 remaining attached to E02-GL-SG3932 at day 15.

[3] = Serum stability (immunocapture, rLCMS); format: in vitro ADME; conditions: human serum
Experimental: as §1

[4] = system: B7-H4 negative HT29 cell line; assay: In-vitro cytotoxicity (CellTiter-Glo); format: cell-based, human
Experimental: The effect of E02-GL-SG3932 treatment on cell viability was determined using a target-negative human colon cancer cell line HT29, the engineered human colon cancer cell line HT29-huB7-H4 Clone 26, and a human breast cancer cell line, MX-1, using a CellTiter-Glo assay.

[5] = system: HT29-huB7-H4 Clone 26 xenograft; assay: Pharmacodynamic study, IHC of xenograft tumors; format: in vivo, CB-17 SCID mice
Experimental: Pharmacodynamic effects following E02-GL-SG3932 treatment were evaluated in a human tumor xenograft mouse model using immunodeficient CB-17 SCID mice. Animals were inoculated subcutaneously (SC) with the human colon cancer cell line HT29-huB7-H4 Clone 26, engineered to express human B7-H4 and after tumors grew in volume to approximately 250 to 300 mm3, animals were randomized and each mouse received an IV injection of either E02-GL-SG3932 or control articles. Tumors were collected at designated timepoints, fixed in 10% neutral buffered formalin and subsequently processed and embedded into paraffin blocks. IHC and image analysis techniques were used to examine human IgG, γH2AX foci, cleaved caspase-3, and epithelial cell density in tumor samples over time. Representative IHC images of human IgG, γH2AX, and cleaved caspase-3 in tumors collected 168 hours after a single IV administration of 7 mg/kg E02-GL-SG3932 or isotype-matched control ADC NIP228 SG3932 are shown in FIGS. 43A-43F.

[6] = system: HT29 xenograft (B7-H4 negative); assay: Xenograft efficacy; format: in vivo, CB-17 SCID mice; conditions: single IV dose at 10 mg/kg, vs vehicle
Experimental: (§2) The antitumor activity of antibody intermediate E02-INT and E02-GL-SG3932 was investigated in human tumor xenograft mouse models using immunodeficient CB-17 SCID mice.
(§3) E02-GL-SG3932 was first evaluated in a pair of colon cancer cell line xenograft models in two separate studies; HT29, which is B7-H4 negative, and HT29-huB7-H4 Clone 26, which is derived from the HT29 cell line and engineered to express human B7-H4. In both studies, animals were injected SC with either the HT29 or HT29-huB7-H4 Clone 26 cells and after tumors grew in volume to a mean of 178 mm3 (HT29) or 194 mm3 (HT29-huB7-H4 Clone 26), animals were randomized and each mouse received an IV injection of either E02-GL-SG3932 or control articles.

[7] = system: HT29-huB7-H4 Clone 26 xenograft; assay: Xenograft efficacy; format: in vivo, CB-17 SCID mice
Experimental: as §2, §3

[8] = system: MX-1 breast cancer xenograft; assay: Xenograft efficacy; format: in vivo, CB-17 SCID mice
Experimental: as §2
The effect of E02-GL-SG3932, the isotype-matched control ADC NIP228-SG3932, and E02-INT, the antibody intermediate of E02-GL-SG3932 was evaluated in the MX-1 breast cancer xenograft model. Animals were injected SC with MX-1 cells and after tumors grew in volume to a mean of 270 mm3, animals were randomized and each mouse received an IV injection of test or control articles.

human TNBC PDX models = assay: Panel of 26 human TNBC PDX models; format: in vivo, athymic nude mice
Description: The antitumor activity of E02-GL-SG3932 was investigated in a panel of 26 human TNBC PDX models using immunocompromised athymic nude mice. These PDX models have been established from human tumor samples without prior in vitro culture and have been studied for histology, cytogenetics, genetic and other biological markers, and for their response to standard-of-care therapies. Tumor fragments were subcutaneously transplanted into mice, and once tumors grew in volume to approximately 94 to 189 mm3, animals were randomized and each mouse received a single IV injection of either E02-GL-SG3932 or control articles, at a dose of 1.25 mg/kg or 3.5 mg/kg. To assess the relationship between B7-H4 expression and efficacy, fresh untreated tumors with a volume of around 500 to 1183 mm3 from 3 additional mice from each model were collected, fixed in 10% neutral buffered formalin and subsequently processed and embedded into paraffin blocks. IHC and image analysis techniques were then used to characterize the expression of B7-H4 on tumor cell membranes in each model.

Hydrophobicity (HIC) = format: physicochemical
Description: (§4) The cleavable mal-PEG8-val-ala linker-SG3932 linker-warhead ADC offers the widest relative TI and compares favorably to benchmark. The four comparative linker-warheads are provided below.

Rat PK = format: in vivo; conditions: @ 60 mg/kg (HNSTD)
Description: as §4

B1: E02-GL-SG3932: E02-GL conjugated via cleavable mal-PEG8-val-ala linker to TOP1i warhead, DAR of 8 (conjugate)
heavy: QVQLQQWGAGLLKPSETLSLACTVYGGSFSGYYWNWIRQPPGKGLEWIGEINHSGSTSYNPSLKSRVTISVDTSKNQFSLKLSSVTAADTAVYYCARVLYNWNVDSWGQGTLVTVSSASTKGPSVFPLAPSSKSTSGGTAALGCLVKDYFPEPVTVSWNSGALTSGVHTFPAVLQSSGLYSLSSVVTVPSSSLGTQTYICNVNHKPSNTKVDKRV[human IgG1 Fc cut from this listing]
light: DIQMTQSPSSLSASVGDRVTITCRASQDIRNDVGWYQQKPGKAPKRLIYAASRLQSGVPSRFSGSGSGTEFTLTISSLQPEDFATYYCLQHNSYPRTFGQGTKVEIKRTVAAPSVFIFPPSDEQLKSGTASVVCLLNNFYPREAKVQWKVDNALQSGNSQESVTEQDSKDSTYSLSSTLTLSKADYEKHKVYACEVTHQGLSSPVTKSFNRGEC
in vivo activity in PDX models [1]: potent in vivo activity
SG3924 remaining attached at day 15 ([2]; cynomolgus monkey serum): 82.0%
SG3924 remaining attached at day 15 ([2]; mouse serum): 84.5%
SG3924 remaining attached at day 15 ([2]; rat serum): 83.5%
SG3924 remaining attached at day 15 [3]: 81%
activity compared with isotype-matched control ADC (NIP228-SG3932) [4]: no difference in activity
cleaved caspase-3 ([5]; compared to the control): Elevated
epithelial cell density ([5]; compared to the control): overall decrease
accumulation in tumor cells (human IgG IHC) ([5]; single IV): dose-dependent accumulation
γH2AX foci staining ([5]; single IV): increased positive staining
TGI [6]: 12%
TGI relative to vehicle ([7]; single IV dose at 1.25 mg/kg): 31%
TGI relative to vehicle ([7]; single IV dose at 2.5 mg/kg): 37%
TGI relative to vehicle ([7]; single IV dose at 5 mg/kg): 42%
TGI ([8]; single IV dose at 1.25 mg/kg): 98%
TGI ([8]; single IV dose at 2.5 mg/kg): 96%
% of models with reduction in tumor volume from baseline of 30% or greater (human TNBC PDX models; single dose of 1.25 mg/kg, 12 of 26): 46.2%
% of models with reduction in tumor growth from baseline of 30% or greater (human TNBC PDX models; single dose of 3.5 mg/kg, 18 of 26): 69.2%
Hydrophobicity (HIC), Retention time (Hydrophobicity (HIC)): 3.41 min
Rat PK CL (Rat PK): 7.57 mL/day/kg
